Experimental data: the supplement of paper PMC3334620
Over roughly 33,000 sequences, “E-score (-0.5 to 0.5)” has its median near -0.017; the highest 2% begin near 0.3. This is one part of the list.

Target: T1, Sut1 (UniProt P53032)
T1 sequence: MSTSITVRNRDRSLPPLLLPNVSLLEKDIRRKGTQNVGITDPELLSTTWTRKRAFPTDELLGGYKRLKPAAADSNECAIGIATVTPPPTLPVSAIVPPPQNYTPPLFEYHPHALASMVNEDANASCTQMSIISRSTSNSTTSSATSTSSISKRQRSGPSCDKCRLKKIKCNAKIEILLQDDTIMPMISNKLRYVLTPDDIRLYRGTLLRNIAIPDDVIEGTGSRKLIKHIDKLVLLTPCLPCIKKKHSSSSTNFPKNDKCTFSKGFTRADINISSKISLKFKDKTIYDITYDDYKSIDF
Assay: PBM E-score (8-mer binding enrichment) (E-score (-0.5 to 0.5)); higher = stronger / more preferred TF binding; most listed sequences are background and not binding sites
Conditions: protein concentration: 200 nM; construct: GST-full length
How it was run: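 Masliner-normalised scans of fluorescent anti-GST signal were the basis for scoring. That signal came from GST-tagged yeast transcription factors applied at about 100-200 nM to double-stranded universal all-10-mer Agilent arrays on fresh or once-stripped slides. Each ungapped eight-base word, pooled with its reverse complement, received an E-score from the Universal PBM Analysis Suite.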

Sequence	PBM E-score
GCCCGTGA	-0.233
AATAGTCG	0.0508
GCGAGCCC	-0.231
CCTAGATA	-0.0911
CGGTAACA	0.277
CTTTATGC	0.165
GCGTTAAC	0.0954
TTGTAAAA	0.134
ACATCGAG	-0.206
ACAGAAAT	0.172
TCGAAGAA	0.0128
CCCAGTAA	0.0903
ACCTGTAA	0.092
AGGCTCAT	-0.164
ACCAGAAA	0.107
AAGTGCAT	-0.0225
ACTATCTG	-0.188
CCCTCCAA	-0.311
AAGTTAGA	0.124
ACAAGGAG	0.0941
ATTCGCAG	0.0734
ACAAGATG	-0.13

Sequence	PBM E-score
CTTAAAAG	-0.0247
TAATCCGA	0.15
CGAGATAG	-0.203
CCATACAC	-0.0321
AAGCCACG	-0.136
AGCGCGAG	-0.12
AACGGCTG	-0.0244
AAATTGGC	0.022
ATCACGTA	0.0676
GCCACACC	-0.144
ATTTGTAG	0.173
GCACGTCA	-0.189
CCTACAAC	0.0308
ATGATTTG	0.0236
CATGTTAG	-0.115
AGCCGGCA	0.0847
AGCCAACA	-0.00424
ATCTCAGG	-0.0305
AGAGCGAT	-0.232
ACGCGTGC	-0.0211
AGGGTGGG	-0.257
ACCAAAGC	0.0336

Sequence	PBM E-score
CACTTTGA	-0.0703
TAGGCATA	-0.0382
GCATTGGC	-0.247
GCAATGTA	-0.0868
ACCCCTGC	-0.277
CGAATTTA	0.163
AAGCGCCT	0.0123
GAGGGCCC	-0.227
GCCTGCCC	-0.204
TATTATGA	0.14
CTGAGTTA	-0.126
AACCGCGG	0.191
ATTGGATC	0.0622
CGGGAGGC	-0.343
ACTAATCC	-0.0921
TGGTACAA	-0.0495
CTCACGAA	-0.0346
AAATTGAA	0.164
AGGAGGGG	-0.312
GCACATTA	0.0689
AACTCGCA	-0.0368
AAGAGAAC	0.145

Sequence	PBM E-score
CCTAGCCA	-0.0454
ATATGGGA	-0.0229
CCATGGAG	-0.174
CAAAGAAG	0.0747
AGCGGGTC	-0.382
GACAGAAA	0.0406
GACAGCAC	0.0796
AGGCAGGA	-0.157
GTGCCGAA	0.0728
CGCAGCAG	-0.118
AGTTGTAC	0.0803
CGAGAGTC	0.00333
AAGAACAG	0.0328
ATCTGTCC	-0.124
AAGGAAAT	0.0288
CGGCTTAC	-0.085
ACTCCTCT	0.0793
CATACTAA	0.0669
CTGGGCAC	-0.224
CTATTCTC	0.0613
